In all, about 190,000 compounds went through this assay and about 520 (0.27%) were called active. Inconclusive results, whose numbers are uncertain, are shown with a selection of clear calls.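 How the source made its calls: active means GTP binding activity at least 20 points away from the 100% control level, either lower or higher; inconclusive means compound flagged as likely green fluorescent, judged across all proteins; inactive means the rest.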
The molecules below were run against Ras-related C3 botulinum toxin substrate 1 (Homo sapiens) (UniProt P63000) (assay: wildtype Rac1 GTP binding modulators, primary screen, biochemical, GST-Rac1 beads, flow cytometry, multiplex (AID 757)). Details: fluorescent GTP binding, at 10 µM, actives lie on both sides, 0 = cold GTP competed, 100 = untreated.

| SMILES | GTP binding activity (% of control) |
| --- | --- |
| O=C(/C=C/c1c(Cl)nc2ccccn12)N1CCCCC1 | inconclusive: 158% |
| CN1/C(=C/C2CC(=O)N(c3ccc([N+](=O)[O-])cc3)C2=O)C(C)(C)c2ccccc21 (centres undefined) | inconclusive: 88% |
| O=C(Nc1ccon1)c1ccc(S(=O)(=O)N2CCOCC2)cc1 | inactive: 94% |
| COCCNC(=O)Cn1cnc2ccc(S(=O)(=O)N3CCC(C)CC3)cc2c1=O | inconclusive: 103% |
| CCC(/C=N/NC(=O)CCCCC(=O)N/N=C/C(CC)CC)CC | inactive: 102% |
| Cc1cccc(-n2c(Cc3ccccc3)n[nH]c2=S)c1 | inconclusive: 92% |
| CCCn1nc(Oc2nc(NCC)nc(NC(C)C)n2)ccc1=O | inconclusive: 104% |
| Cc1cc(C)c2nc(NNC(=O)c3cc(=O)c4ccccc4o3)sc2c1 | inactive: 80% |
| CCC/C(O)=C1\C(=O)CC(C)(C)CC1=Nc1ccccc1OC | active: 125% [activator] |
| O=C(O)C1=C[C@H](c2ccc(C(F)(F)F)cc2)C[C@H](OCc2ccc(CO)cc2)O1 | active: 77% |
| CCn1c(NC(=S)Nc2ccccc2)nc2ccccc21 | inconclusive: 105% |
| Cn1c(CCNC(=O)c2cccs2)nnc1SCC(=O)Nc1nc(-c2ccccc2)cs1 | inconclusive: 101% |
| CCOC(=O)CCNC(=O)Nc1ccc2nc(C)n(Cc3ccc(Cl)cc3)c(=O)c2c1 | inconclusive: 106% |
| CCN(CC(=O)Nc1cccc(C#N)c1)CC(=O)Nc1cccc(OC)c1 | inconclusive: 91% |
| CCN(CC)S(=O)(=O)c1cccc(-c2nnc(SCC(=O)NC3CCCC3)n2N)c1 | inconclusive: 93% |
| O=C(Nc1ccc2c(c1)OCO2)c1cc2ncc(Br)cn2n1 | inconclusive: 98% |
| O=C(Nc1nnc(-c2ccccc2)o1)c1ccc(Cl)cc1 | inconclusive: 86% |
| CN1CC(=O)N(CC(=O)Nc2ccc(Cl)c(C(F)(F)F)c2)C1=O | inconclusive: 108% |
| Fc1ccc(NC(=S)NNc2ncc(C(F)(F)F)cc2Cl)c(F)c1 | inactive: 94% |
| CCOC(=O)C(C)c1ccc2cc(OC)ccc2c1 (centres undefined) | inactive: 95% |
| COc1cc(NS(=O)(=O)c2ccc(NC(=O)/C(=C/c3ccccc3Cl)NC(=O)c3ccccc3)cc2)nc(OC)n1 | inconclusive: 91% |
| CN(Cc1c(C(=O)N2CCc3ccccc3C2)nc2ccc(Cl)cn12)C(C1CC1)C1CC1 | inactive: 100% |
| Clc1ccc(-c2noc(CN3CCN(c4ccccc4)CC3)n2)cc1 | inconclusive: 94% |
| COc1cccc(N2CCN(C3CCCC(C)C3)CC2)c1 (centres undefined) | inconclusive: 104% |

| SMILES | GTP binding activity (% of control) |
| --- | --- |
| Cn1c(CCN2CCOCC2)nc2cc(NC(=O)COc3ccc(Cl)cc3)ccc21 | inconclusive: 105% |
| O=C1c2ccccc2S(=O)(=O)N1CC(O)Cn1ccc2ccccc21 (centres undefined) | inconclusive: 92% |
| CN(CC(=O)Nc1cccc([N+](=O)[O-])c1)S(=O)(=O)c1ccccc1 | inactive: 96% |
| CCC(Sc1ccccc1C(=O)O)C(=O)O (centres undefined) | inconclusive: 108% |
| CN(C)C(=O)/C(=C\c1ccncc1)NC(=O)c1ccccc1 | inconclusive: 99% |
| COc1ccc(Nc2cc(Cl)nc(N)n2)cc1 | inconclusive: 95% |
| COc1ccc(/C=N/Nc2ncnc3sc4c(c23)CCCC4)cc1O | active: 77% |
| O=C(O)c1ccc(CSc2nnc(-c3cccnc3)n2-c2ccc(Br)cc2)cc1 | inactive: 97% |
| Cc1cc(=O)[nH]c2ccccc12 | inactive: 107% |
| S=C(Nc1ccccc1)N1N=C(c2cccs2)CC1c1cccs1 (centres undefined) | inactive: 98% |
| Cc1[nH]c(C)c(C(=O)O)c1CNC1CCCCC1C (centres undefined) | inconclusive: 108% |
| CC(OC(=O)C1CC1)C(=O)Nc1ccc([N+](=O)[O-])cc1Cl (centres undefined) | inactive: 97% |
| N=C1/C(=C\c2ccc(SCc3ccco3)o2)C(=O)N=C2SC=NN12 | active: 76% |
| COc1ccc2c(c1OC)C(=O)N1c3ccccc3SC21 (centres undefined) | inconclusive: 104% |
| COc1cccc(Oc2cncnc2-c2ccc(OC)cc2O)c1 | inconclusive: 95% |
| c1ccc(-n2nnnc2SCc2cn3ccccc3n2)cc1 | inconclusive: 106% |
| CC(C)Cc1csc(NC(=O)c2ccccc2Cl)c1C(=O)O | active: 79% |
| c1ccc2c(c1)[nH]c1nc3nncn3nc12 | inconclusive: 91% |
| COc1ccc(C(=O)Nc2nnc(-c3cccs3)s2)cc1 | inconclusive: 107% |
| COC(=O)c1cccc(C(=O)Nc2cnc3ccccc3c2)n1 | inconclusive: 96% |
| COc1cc(NC(=S)Nc2cccc(C)n2)cc(OC)c1OC | inconclusive: 89% |
| O=C(COC(=O)c1cccnc1Cl)c1ccc(OC(F)F)cc1 | inactive: 90% |
| COC(=O)c1ccccc1NC(=O)CSc1nnnn1-c1ccc(C)cc1C | inconclusive: 91% |
| CN1/C(=C\C=C(/C#N)C(=O)Nc2ccc(Cl)cc2)C(C)(C)c2ccccc21 | inactive: 116% |

| SMILES | GTP binding activity (% of control) |
| --- | --- |
| O=C(CSc1ccccc1C(=O)NCc1ccccc1)NC1CCCCCCC1 | inactive: 96% |
| N#C/C(=N/O)c1nc(-c2ccc(F)cc2)cs1 | inconclusive: 103% |
| Cc1cc(C)c(S(=O)(=O)c2ccccc2C)c(OCC(C)(C)C)n1 | inconclusive: 97% |
| Cc1cc(NC(=O)c2oc3ccccc3c2C)ccc1-n1cnnn1 | inconclusive: 147% |
| CS(=O)(=O)c1ccc(S(=O)CC(=O)Oc2ccc(Cl)cc2)c([N+](=O)[O-])c1 (centres undefined) | inactive: 94% |
| Cc1ccc2cn[nH]c2c1N | inconclusive: 89% |
| CCSc1nnc(-c2ccc(Cl)cc2)c2ccccc12 | inconclusive: 96% |
| COc1ccccc1-c1nnc(SCC(=O)N2CCOCC2)n1-c1ccccc1 | inconclusive: 103% |
| Cc1sc2nc(-c3cccnc3)nc(Cl)c2c1-c1ccccc1 | inconclusive: 105% |
| O=C(NCc1cccs1)c1cc(-c2ccccc2)on1 | inconclusive: 95% |
| Cc1cc(NS(=O)(=O)c2ccc(Nc3nc(-c4sc(N)nc4C)cs3)cc2)no1 | inactive: 86% |
| Cc1ccc2sc(NNC(=O)c3cc(=O)c4ccccc4o3)nc2c1C | inactive: 83% |
| COc1cc(/C=N/NC(=O)C(Cc2c[nH]c3ccccc23)NC(=O)OCC(C)C)cc([N+](=O)[O-])c1O (centres undefined) | inactive: 88% |
| CSc1nc(-c2ccccc2)cn1-c1ccc(NC(C)=O)cc1 | inconclusive: 90% |
| Cc1ccc(C(=O)O/N=C/C2=C(Cl)c3ccccc3CC2)cc1 | inconclusive: 92% |
| CN(C)S(=O)(=O)c1cc(NC2CC(=O)N(c3ccc(F)cc3)C2=O)ccc1Cl (centres undefined) | inconclusive: 96% |
| CC1(c2ccc(Cl)cc2)NC(=O)CS1 (centres undefined) | inactive: 102% |
| COc1cc(/C=C2/SC(=Nc3ccc(O)cc3)NC2=O)cc(OC)c1O | active: 59% |
| CSCCC(NC(=O)c1ccccc1C)C(=O)O (centres undefined) | inconclusive: 95% |
| O=C(O)c1ccc(Nc2nc(-c3cccnc3)nc3ccccc23)cc1 | inconclusive: 66% |
| COC(=O)CSc1nc2c(c(=O)[nH]c(=O)n2C)n1CCC(C)C | inconclusive: 110% |
| O=C(COc1ccc2ccccc2c1)Nc1ccc2c3c(cccc13)CC2 | inconclusive: 91% |
| COc1ccccc1NC(=O)c1c(N=Cc2ccccc2O)cnn1C | inconclusive: 93% |
| O=C(CSc1nc2ccccc2c(=O)[nH]1)N1CCCCCC1 | inconclusive: 103% |

| SMILES | GTP binding activity (% of control) |
| --- | --- |
| O=S(=O)(Nc1cccc(-c2cn3cccnc3n2)c1)c1ccc(Cl)cc1 | inconclusive: 89% |
| CN(CCNC(=O)C1(O)c2ccccc2NC(=O)N1c1ccccc1)Cc1ccccc1 (centres undefined) | inconclusive: 104% |
| N#Cc1c(-c2ccccc2)nc(SCC(=O)Nc2ccccc2)[nH]c1=O | inconclusive: 71% |
| CCSc1nnc(-c2cc(Br)ccc2N=Cc2c(C)[nH]n(-c3ccccc3)c2=O)c(=O)[nH]1 | inconclusive: 84% |
| CCCCNC(=S)Nc1ccccc1Cc1ccccc1 | inactive: 99% |
| COc1ccccc1NS(=O)(=O)c1cc(NC(=O)c2ccccc2F)ccc1N1CCOCC1 | inconclusive: 94% |
| COc1ccc(-n2c(=S)[nH]c3cc(C(=O)NCCCN4CCCC4=O)ccc3c2=O)cc1 | inconclusive: 104% |
| N#CCCN(CCC#N)c1nncs1 | inconclusive: 107% |
| O=C(COc1cccnc1[N+](=O)[O-])Nc1cccc(S(=O)(=O)N2CCCCC2)c1 | inactive: 99% |
| O=C(N1CCCCC1)N1CCN(C(c2ccccc2)c2ccccc2)CC1 | inconclusive: 110% |
| CCCCCC(=O)NNC(=O)c1ccc(F)cc1 | inactive: 107% |
| O=C(O)c1ccccc1C(=O)NNc1cccc(Cl)n1 | inactive: 96% |
| O=C(NC1CCCc2ccccc21)C1CCC(CNS(=O)(=O)c2cccc3nsnc23)CC1 (centres undefined) | inconclusive: 107% |
| O=c1c2cccnc2[nH]c(=S)n1CCC1=CCCCC1 | inconclusive: 103% |
| O=C(O)c1cc([N+](=O)[O-])ccc1NCc1ccccc1Cl | active: 146% [activator] |
| Cc1ccsc1C(=O)N1CCC(N2CCC(C(=O)NCC3CCCO3)CC2)CC1 (centres undefined) | inactive: 100% |
| CC(C)c1nc(-c2ccccc2)c(-c2ccccc2)[nH]1 | inconclusive: 107% |
| CCOc1ccc2nc(CN3CCN(Cc4ccsc4)C(CCO)C3)ccc2c1 (centres undefined) | inactive: 98% |
| Cc1ccc(NC(=O)CN2C(=O)N/C(=C/c3cc(C)n(-c4cccc(C(=O)O)c4)c3C)C2=O)cc1 | inconclusive: 85% |
| O=C(NN=C1C2CC3CC(C2)CC1C3)c1cccc(S(=O)(=O)N2CCOCC2)c1 | inactive: 106% |
| O=C(Nc1ccccc1)C1CCCN1C(=O)Nc1ccccc1[N+](=O)[O-] (centres undefined) | inconclusive: 99% |
| Cc1cc(C)cc(-n2c(C)cc(/C=N\NC(=O)COc3cccc4cccnc34)c2C)c1 | inconclusive: 93% |

— PubChem BioAssay AID757 (NMMLSC, 2007)
